Experimental data from the supplement of paper PMC3724861.
The other results are listed elsewhere or left out.

Test system: T1, Caupolican (Caup) homeodomain DNA-binding domain
T1 sequence: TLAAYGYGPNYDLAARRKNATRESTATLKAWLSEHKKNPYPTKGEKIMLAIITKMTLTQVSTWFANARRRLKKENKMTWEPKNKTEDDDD
Test: PBM E-score (8-mer, recovered from the published 9-mer minima) (E-score (dimensionless, -0.5 to 0.5)); Drosophila protein; higher = stronger relative binding preference, active = 0.31 or more
In short: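 Caup's homeodomain DNA-binding domain (residues 214-303) was made by in vitro transcription and translation and applied at 100 nM to custom-designed protein binding microarrays. Each value is an enrichment score that gives relative binding preference for a short DNA word, with higher meaning stronger. The 8-mer values were recovered from published 9-mer scores, each of which was the minimum of its two constituent 8-mer scores. A cutoff of 0.31 marks candidate sites.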

Sequence | PBM E-score
CGGTGGAC | inactive: -0.0807
AGTTTTGG | inactive: -0.0105
AGCTCAGG | inactive: -0.116
CCCCATAC | inactive: -0.19
CCTTGTAC | active: 0.399
CGCTGATC | inactive: -0.0501
AAATCCGA | inactive: 0.0288
CGTGGTAG | inactive: -0.022
GTGACCTA | inactive: 0.0131
ACGCAGCT | inactive: -0.0676
AGCAATTG | inactive: 0.0475
GCGGTCTA | inactive: -0.0746
CCAAGGTC | inactive: -0.0905
AGCGTATA | inactive: 0.0189
AAGCCGGC | inactive: -0.175
ATATACTC | inactive: 0.0689
CACTATAA | inactive: 0.118
CATCCAGG | inactive: -0.0977
GGAACCAC | inactive: -0.00107
AATACTAA | inactive: 0.0875
CCAAGAAA | inactive: 0.0351
TGCACGCA | inactive: -0.0359
CATGCGTA | inactive: 0.11
AGGGCATC | inactive: -0.158

Sequence | PBM E-score
AACGTTCA | inactive: 0.0202
ATCAAAAT | inactive: 0.131
GGTAGGAA | inactive: -0.0475
TAACCGAA | inactive: 0.00092
CGCTTAAG | inactive: -0.0985
ACGGACTA | inactive: 0.043
AAACAGAC | inactive: 0.158
GGTGAATA | inactive: -0.0398
CCGTCGCC | inactive: -0.246
AAACCCAC | inactive: -0.0514
CGAGTCCC | inactive: -0.151
CAATAGGG | inactive: -0.0976
ACCTAGCG | inactive: -0.129
AGGGGCGG | inactive: -0.247
ATAGCTGG | inactive: -0.0765
AAATTTGC | inactive: 0.022
AAATACTA | inactive: 0.0932
ATTGACAA | inactive: 0.289
CCAGCAAA | inactive: 0.0234
TATACCGA | inactive: 0.107
AAGCCTGC | inactive: -0.156
CACGTAAG | inactive: 0.0839
CCGCTGTC | inactive: -0.0395
GAGGACCC | inactive: -0.242

Sequence | PBM E-score
GATGAAGC | inactive: 0.0263
TCTACCCA | inactive: -0.0395
GGCTCGAA | inactive: -0.138
GTCTGGTA | inactive: 0.149
CGTATGAC | inactive: 0.132
CATGGGTA | inactive: 0.068
ATAATCAG | inactive: 0.101
AAAAGCAC | inactive: -0.0868
ACACGTTA | inactive: 0.29
AAAAATTC | ≥ 0.174
ACCATAGC | inactive: -0.0174
ATTAGCCG | inactive: -0.0126
CTTGTTGC | inactive: 0.269
TAACAACA | active: 0.406
CACCTCCA | inactive: -0.0471
CACGTGCG | inactive: -0.0115
GTATTGTA | inactive: 0.277
TAGGATGA | inactive: -0.0023
ATAGTTAG | inactive: 0.00654
ATGTAGAC | inactive: 0.267
ATATTGTA | ≥ 0.306
CCTTACCG | inactive: -0.0775
AGCATGCA | ≥ 0.122
AGACACCT | inactive: 0.0759

Sequence | PBM E-score
CACTAATA | inactive: 0.118
CTCAAGAG | inactive: -0.197
AGCTCTAA | inactive: -0.00541
CTGCGACA | inactive: 0.117
GGGCTACC | inactive: -0.2
CACACGGA | inactive: 0.00106
CATCGATG | inactive: 0.131
AAGCCAAG | inactive: -0.144
ATTGGACA | inactive: 0.289
CAATGATC | inactive: 0.0114
ATAGTACG | inactive: 0.0984
CCACGGGC | inactive: -0.226
AGATTAAC | inactive: 0.051
ATACCAGG | inactive: 0.132
CCCGCTCG | inactive: -0.208
CTCTCAGC | inactive: -0.19
AGTTTGAA | inactive: 0.0767
ACCGCAGC | inactive: -0.241
GTTTAAGA | inactive: -0.0184
ACGCAGAA | inactive: -0.00806
ACAATTGA | inactive: 0.191
AGCAGGTC | inactive: -0.0493
AGACTGCA | inactive: 0.0445
GTTTTAGA | inactive: 0.0271

Sequence | PBM E-score
CCTAAAGG | inactive: -0.131
AGCTGCAG | inactive: -0.122
ATCACTCG | inactive: 0.079
CCAGGATC | inactive: -0.129
CCCAAATC | inactive: -0.0496
CCAGTCCA | inactive: -0.134
CATCTGTC | inactive: 0.0767
AACAGGAA | inactive: 0.178
CTATTATA | inactive: 0.0993
ATGTTAGA | active: 0.329
CTAACACA | inactive: 0.276
CCCGAGCC | inactive: -0.232
CCACTACC | inactive: -0.0803
CCTCCGAC | inactive: -0.179
GGAGCGCC | inactive: -0.303
AACTACGA | inactive: 0.0922
TCGCCCCA | inactive: -0.176
GCTCCTTA | inactive: -0.124
TATTGGCA | ≥ 0.106
CACTAGGA | inactive: -0.0624
AAGCACTA | ≥ 0.116
AAAAACCG | inactive: 0.0642
TGCAGGAA | inactive: -0.0534
CCTAATTC | inactive: 0.0704

Sequence | PBM E-score
ATAGGCTA | inactive: -0.013
CTAGACAC | inactive: 0.16
GTAGATTA | inactive: 0.179
GAAGAGAA | inactive: -0.154
AATTTCGA | inactive: 0.027
ATAGGAGC | inactive: -0.0144
TATCTGAA | inactive: -0.0172
CTCGACCC | inactive: -0.12
AAGACGGA | inactive: -0.102
GTTAACAA | inactive: 0.296
AACAGTTC | inactive: 0.133
CTCTTTGC | inactive: -0.105
CAACTTTC | inactive: -0.00516
GAGAGGTA | inactive: -0.0933
CGGTGCAG | inactive: -0.165
GGACCCCA | inactive: -0.21
ACCTCTAC | inactive: 0.00374
CATTGTCC | inactive: 0.156
ACATCGTC | inactive: 0.251
AATACTTC | inactive: 0.0482
CGTAACCC | inactive: -0.126
CCGATTAA | inactive: 0.0142
GCCGTCCC | inactive: -0.25
